Test results reported in the supplement of paper PMC10126150.
Sequences with one replicate were seen in a single cluster, so their values are uncertain.

Test system: ATP
Test: switch fluorescence ratio, 500 uM ATP over buffer (Cy3 cluster intensity, sum of 5 cycles each) (fold (ratio)); higher = stronger signal-on switching upon ATP binding; sequences stand for … in TCGTCGGCAGCGTCAGATGTGTATAAGAGACAGTTTTTTTTTTTTTTTTTTTTTTTTT…TC
Details: aptamer strand: ATP DNA aptamer (quencher-CACCTGGGGGAGTATTGCGGAGGAAGG + anchor), 100 nM annealed; ATP concentration: 500 uM; one replicate
Outline: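 Switching-strand clusters labelled with Cy3 on a modified Illumina MiSeq flow-cell were annealed to 100 nM quencher-labelled ATP aptamer, imaged in selection buffer, and re-imaged after 15 min with 500 uM ATP at 22 °C. This was done over five cycles with NaOH stripping and re-annealing in between. The fluorescence ratio is summed target-cycle over summed buffer-cycle Cy3 intensity per cluster, averaged per switch-domain sequence, excluding clusters outside 100-1000 RFU.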
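Note: ATP exposure 15 min at 22 °C before imaging.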

## GTTGAAGACG
  switch fluorescence ratio: 0.985

## GGTCAATCTT
  switch fluorescence ratio: 0.962

## GAGATAGTGA
  switch fluorescence ratio: 0.991

## TAGACGATAG
  switch fluorescence ratio: 0.941

## CGCAGTGTCG
  switch fluorescence ratio: 1.03

## ATTCAACCCG
  switch fluorescence ratio: 1.03

## TGCCTGATTT
  switch fluorescence ratio: 0.993

## CCGCGCGGAT
  switch fluorescence ratio: 1.51

## TAAATAAACG
  switch fluorescence ratio: 1.04

## GCGCTTCCTC
  switch fluorescence ratio: 2.11

## TCTATGAAGA
  switch fluorescence ratio: 0.952

## ATAACAGCCA
  switch fluorescence ratio: 1.03

## GGCGCTTTAA
  switch fluorescence ratio: 1.05

## TTGCATGCAC
  switch fluorescence ratio: 0.985

## TGGGTAGCTG
  switch fluorescence ratio: 0.97

## AACGGATGAC
  switch fluorescence ratio: 0.989

## ACAAAGGTAC
  switch fluorescence ratio: 1.08

## GCTTATGGTG
  switch fluorescence ratio: 0.987

## AAAGAAGTAG
  switch fluorescence ratio: 1.01

## AATCCGGAGG
  switch fluorescence ratio: 1.01

## ATATCGTAAC
  switch fluorescence ratio: 1.01

## TATCCGCTGG
  switch fluorescence ratio: 1.42

## ACCGTCTTAT
  switch fluorescence ratio: 1.16

## CTGTAAGAGC
  switch fluorescence ratio: 0.998

## GGTCTGGCGT
  switch fluorescence ratio: 0.973

## ATTGGAGGCG
  switch fluorescence ratio: 0.992

## AGTTATCCGC
  switch fluorescence ratio: 1.15

## TTCCTGAAAT
  switch fluorescence ratio: 1.03

## ACGAAATTT
  switch fluorescence ratio: 1.05

## CCGGGGGAA
  switch fluorescence ratio: 1.03

## TACTAACAGG
  switch fluorescence ratio: 1.26

## AGAACCAGCC
  switch fluorescence ratio: 1.91

## CCAACGACTA
  switch fluorescence ratio: 1.57

## TTGAGTTACG
  switch fluorescence ratio: 1.02

## AGGAGAGACA
  switch fluorescence ratio: 1.06

## GGGCACAAAG
  switch fluorescence ratio: 1.61

## ACGACCAGT
  switch fluorescence ratio: 1.03

## GTTACTGATT
  switch fluorescence ratio: 1.04

## ATTAAATGGA
  switch fluorescence ratio: 1.04

## CGTAGTTCTA
  switch fluorescence ratio: 1.05

## TCATTTCGTC
  switch fluorescence ratio: 1.01

## CGGTTGCCGT
  switch fluorescence ratio: 1.01

## CATAGCTCCA
  switch fluorescence ratio: 1.04

## CTGAGCCTG
  switch fluorescence ratio: 0.976

## GGTCAAATTT
  switch fluorescence ratio: 0.983

## GAGAAACTTT
  switch fluorescence ratio: 0.998

## ACGCCTGCCA
  switch fluorescence ratio: 1.07

## TAGCGTTGTC
  switch fluorescence ratio: 0.986

## CTGATAGGG
  switch fluorescence ratio: 0.967

## TTAATAACCT
  switch fluorescence ratio: 1.82

## CTGGGAGGCG
  switch fluorescence ratio: 0.967

## CGAGTCTTAC
  switch fluorescence ratio: 1.06

## CTAGAAGTTG
  switch fluorescence ratio: 0.998

## AGTGGGGTGC
  switch fluorescence ratio: 0.993

## ATCGACATGT
  switch fluorescence ratio: 1.01

## TACTTGCAGA
  switch fluorescence ratio: 1.03

## TTGAGTTGAA
  switch fluorescence ratio: 0.991

## TATAGCTCGC
  switch fluorescence ratio: 0.96

## GAATAGGTTT
  switch fluorescence ratio: 0.963

## TCTTACTAAC
  switch fluorescence ratio: 1.16

## TGCTTACAT
  switch fluorescence ratio: 0.965

## CTAAGTGGAT
  switch fluorescence ratio: 0.958

## ATTCGTAAGG
  switch fluorescence ratio: 0.978

## TATAGCACGT
  switch fluorescence ratio: 1.07

## CACGGAGGGT
  switch fluorescence ratio: 1.11

## CGACACCTGC
  switch fluorescence ratio: 1.15

## AGAAATAAAG
  switch fluorescence ratio: 1.01

## AGAGAAGAAC
  switch fluorescence ratio: 1.01

## TAGTCTCACG
  switch fluorescence ratio: 0.979

## GAGCGTCAGG
  switch fluorescence ratio: 1.02

## GTCAGCATAG
  switch fluorescence ratio: 1.26

## AATAACGAC
  switch fluorescence ratio: 1.06

## GGGGATCAGA
  switch fluorescence ratio: 1

## TCATACTGT
  switch fluorescence ratio: 0.993

## CTGTGCGCTC
  switch fluorescence ratio: 1.25

## CCGCGGAGTT
  switch fluorescence ratio: 0.997

## CAAGCTGGGC
  switch fluorescence ratio: 0.952

## TTATATAGG
  switch fluorescence ratio: 1.01

## TATGGGAAAT
  switch fluorescence ratio: 0.968

## TGCTTAAAA
  switch fluorescence ratio: 0.956

## AGTCGGCGTT
  switch fluorescence ratio: 1.01

## TGCCAAGGAA
  switch fluorescence ratio: 0.998

## GACACAATTA
  switch fluorescence ratio: 1.18

## AGAAGCGTGC
  switch fluorescence ratio: 1.04

## GAATCGCTGT
  switch fluorescence ratio: 0.969

## TCTACCTCTA
  switch fluorescence ratio: 1.05

## AAAGTCAATC
  switch fluorescence ratio: 1.14

## CATAGCGGAA
  switch fluorescence ratio: 1.09

## GGAGACTTTC
  switch fluorescence ratio: 0.923

## ATAAGCATAC
  switch fluorescence ratio: 4.04

## GTGTCATCTT
  switch fluorescence ratio: 0.976

## TACAGCGGGC
  switch fluorescence ratio: 1

## AGGCATAGTG
  switch fluorescence ratio: 0.995

## TGCTTGCCCA
  switch fluorescence ratio: 1.01

## GGAATATGGA
  switch fluorescence ratio: 0.979

## TCCCTTTCTA
  switch fluorescence ratio: 0.977

## TACTGGTGGG
  switch fluorescence ratio: 0.963

## TTCACACCGT
  switch fluorescence ratio: 1.06

## CAAGTGGCGC
  switch fluorescence ratio: 0.95

## ACTTTTTGGT
  switch fluorescence ratio: 0.996

## AGATAGTAAG
  switch fluorescence ratio: 1

## TGTTTACCAT
  switch fluorescence ratio: 1.02

## TGCAGGCGTC
  switch fluorescence ratio: 1.07

## TGCTCTACTG
  switch fluorescence ratio: 1

## CCTCTAGAAT
  switch fluorescence ratio: 1.72

## AGAACTTCGT
  switch fluorescence ratio: 1.02

## CTCCTAAAGT
  switch fluorescence ratio: 1.07

## TCTGGATA
  switch fluorescence ratio: 1.06

## AATATTTCGT
  switch fluorescence ratio: 0.996

## TAGCGCAGGA
  switch fluorescence ratio: 1.03

## CGGTCCTTCC
  switch fluorescence ratio: 1.33

## TTAAAGGCAC
  switch fluorescence ratio: 1.18

## GTTAGAATTT
  switch fluorescence ratio: 1.02

## AAATAATACG
  switch fluorescence ratio: 1.02

## GGTGATAGCC
  switch fluorescence ratio: 0.964

## CAATTGCTTT
  switch fluorescence ratio: 1.01

## CGCCCTGTCC
  switch fluorescence ratio: 1.11

## AAGGGACACT
  switch fluorescence ratio: 1.02

## CCAAGTGCCC
  switch fluorescence ratio: 1.02

## CGTGCGGAAC
  switch fluorescence ratio: 1.24

## CGTGACGCGG
  switch fluorescence ratio: 0.977

## TGACCACTTT
  switch fluorescence ratio: 1.01

## AAGATTTGAT
  switch fluorescence ratio: 0.99

## TATTTTGC
  switch fluorescence ratio: 1.02

## GATATAATCA
  switch fluorescence ratio: 0.991

## TGGGGTCCTG
  switch fluorescence ratio: 0.981

## CCCACGATGA
  switch fluorescence ratio: 1.16

## TGCAAGTTC
  switch fluorescence ratio: 1.16

## ACGCCAGGAG
  switch fluorescence ratio: 1.24

## TACTTGATCG
  switch fluorescence ratio: 1.02

## GGGGTTCATA
  switch fluorescence ratio: 0.999

## TGAGGGACCA
  switch fluorescence ratio: 1.01

## GGCCGATGTG
  switch fluorescence ratio: 0.992

## TGGCAGTCAA
  switch fluorescence ratio: 0.976

## GGCGGCGCGG
  switch fluorescence ratio: 0.966

## CACCTCCAGA
  switch fluorescence ratio: 1.06

## CATCGGTATG
  switch fluorescence ratio: 1

## GGCGTTGGGA
  switch fluorescence ratio: 1

## TTGCCAGATG
  switch fluorescence ratio: 1.06

## AGCCCTGGAG
  switch fluorescence ratio: 1.05

## TGACCGGTTT
  switch fluorescence ratio: 1.04

## ATTGGTGTCA
  switch fluorescence ratio: 1

## CTTTAGTCGG
  switch fluorescence ratio: 0.991

## GTGTAAGT
  switch fluorescence ratio: 0.971

## TGCTGAAAGG
  switch fluorescence ratio: 0.953

## TTGGTTAGCA
  switch fluorescence ratio: 1.01

## CGTATTGGTC
  switch fluorescence ratio: 1.01

## AGAGGCGGTC
  switch fluorescence ratio: 1

## ACAATCTCTA
  switch fluorescence ratio: 1

## CAGTACGAAG
  switch fluorescence ratio: 1.06

## GACACTAGAT
  switch fluorescence ratio: 1.04

## ATCCCGCTCG
  switch fluorescence ratio: 1.04

## TATGAAATGA
  switch fluorescence ratio: 0.961

## GGGGATCCTG
  switch fluorescence ratio: 0.951

## CAATGATAGA
  switch fluorescence ratio: 0.955

## GACACAAATG
  switch fluorescence ratio: 1.02

## TTTTCCGGG
  switch fluorescence ratio: 1.05

## GCTAAATCCA
  switch fluorescence ratio: 0.973

## CTGATGTAGT
  switch fluorescence ratio: 1.01

## TGACGGGGT
  switch fluorescence ratio: 1.03

## GTCTCTAAGC
  switch fluorescence ratio: 0.994

## AAGGGGCAGT
  switch fluorescence ratio: 1.03

## TTCGTACACT
  switch fluorescence ratio: 1

## TCTACCTCAC
  switch fluorescence ratio: 1.45

## TGCTATGATT
  switch fluorescence ratio: 1.04

## TTCGAAATTC
  switch fluorescence ratio: 1

## GGCGATAGTG
  switch fluorescence ratio: 0.986

## TTCGCATTGG
  switch fluorescence ratio: 1.84

## GCTGGAAGGA
  switch fluorescence ratio: 0.985

## GGGTTCTCC
  switch fluorescence ratio: 1.26

## CATTGGATAT
  switch fluorescence ratio: 0.996

## TTTCGCTGAC
  switch fluorescence ratio: 2.5

## ATTACCAAAA
  switch fluorescence ratio: 1.02

## CGATAATTAC
  switch fluorescence ratio: 1.43

## TGATCGCGAA
  switch fluorescence ratio: 1.07

## ATTCCTCTCG
  switch fluorescence ratio: 1.93

## GCGGGGGCGA
  switch fluorescence ratio: 0.955

## TCCTAGAACC
  switch fluorescence ratio: 1.08

## CGGTGTGGTC
  switch fluorescence ratio: 0.969

## ACCGGTTTGT
  switch fluorescence ratio: 0.979

## CTAACGGAGA
  switch fluorescence ratio: 1

## AGATAGTCTG
  switch fluorescence ratio: 1

## TGTGATGTAT
  switch fluorescence ratio: 1

## TTATCTGGTT
  switch fluorescence ratio: 1.09

## TTTACGACGT
  switch fluorescence ratio: 1.07

## TCTCGAGTGC
  switch fluorescence ratio: 1.02

## TTAGGCTTTA
  switch fluorescence ratio: 1.09

## AGAGACAGGT
  switch fluorescence ratio: 1.02

## GAGAGGAAGG
  switch fluorescence ratio: 1.02

## TATCATGATA
  switch fluorescence ratio: 1.02

## AACAATAG
  switch fluorescence ratio: 1.1

## ACAACGTATG
  switch fluorescence ratio: 0.964

## ACACCGTAAC
  switch fluorescence ratio: 1.21

## AATTGTTGAT
  switch fluorescence ratio: 1.02

## GTGTTGACGA
  switch fluorescence ratio: 0.973

## GGAGTGGTGG
  switch fluorescence ratio: 1.03

## AAGTGATGAC
  switch fluorescence ratio: 1.03

## ACAGGTAGTC
  switch fluorescence ratio: 1.05

## CGATTCATTG
  switch fluorescence ratio: 0.975

## CGTGCTCTGT
  switch fluorescence ratio: 1.01

## CCATGGATCC
  switch fluorescence ratio: 1
